In all, about 45,000 compounds went through this assay and about 65 (0.1%) were called active. Calls follow the shape of the dose curve; as a rule, active = well fitted activation curve with a large enough effect; inconclusive = small, poorly fitted or top-dose-only effect; inactive = no such curve, though single readings can be large or run the other way. The list shows a part of the results.
molecular target: Galactocerebrosidase (Homo sapiens) (UniProt P54803); experiment: A Novel Cell-Based Assay to Identify Small Molecules for B -Galactocerebrosidase; settings: 145M-Twi-hGALC-G270D cells (Twitcher mouse brain line with human GALC G270D), HMU-beta-Gal fluorescence, 48 h; series mostly up to 57.5 µM; activation: at the top concentration; also: 0% is about no effect; nearly all actives have a fitted effect of over 65% in size
Sequence of UniProt P54803 (P54803 whole entry, looked up): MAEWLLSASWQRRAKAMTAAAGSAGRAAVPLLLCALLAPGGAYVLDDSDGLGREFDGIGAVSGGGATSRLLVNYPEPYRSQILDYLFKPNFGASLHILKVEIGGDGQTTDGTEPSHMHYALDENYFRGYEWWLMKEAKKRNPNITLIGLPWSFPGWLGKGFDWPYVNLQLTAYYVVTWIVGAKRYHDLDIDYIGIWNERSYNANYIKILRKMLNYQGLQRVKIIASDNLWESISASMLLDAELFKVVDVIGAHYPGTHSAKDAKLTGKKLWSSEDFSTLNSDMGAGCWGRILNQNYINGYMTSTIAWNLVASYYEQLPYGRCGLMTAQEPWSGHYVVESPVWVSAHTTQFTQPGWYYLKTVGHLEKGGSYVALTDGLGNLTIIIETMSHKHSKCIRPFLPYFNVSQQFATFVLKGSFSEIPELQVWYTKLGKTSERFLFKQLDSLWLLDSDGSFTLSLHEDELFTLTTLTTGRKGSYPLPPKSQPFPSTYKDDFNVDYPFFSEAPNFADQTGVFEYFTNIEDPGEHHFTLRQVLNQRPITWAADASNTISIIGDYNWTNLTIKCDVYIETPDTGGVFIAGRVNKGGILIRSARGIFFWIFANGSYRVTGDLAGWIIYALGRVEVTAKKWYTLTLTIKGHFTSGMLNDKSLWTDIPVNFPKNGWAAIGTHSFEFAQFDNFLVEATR
Outline: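 Mutant human GALC (G270D), stably expressed in a Twitcher mouse brain cell line lacking endogenous GALC, is measured in live-treated cells via 6-hexadecanoylamino-4-methylumbelliferyl-β-galactoside hydrolysis (0.1 mM final, pH 5.2) with fluorescent detection.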

activation, inactive:
COc1cc2nc(N(C)CCCNC(=O)C3CCCO3)nc(N)c2cc1OC (stereo unspecified) -17.2%
COc1cccc(CNC(=O)c2ccc(-c3nc(CS(=O)c4ccccc4)c(C)o3)cc2)c1 (stereo unspecified) -11.8%
COc1ccc(NC(=O)Cn2cnc3ccc(S(=O)(=O)N4CCC(C)CC4)cc3c2=O)c(OC)c1 -2.35%
COc1ccc(C2=C(C)C(N3CCC(C(=O)NCc4ccc(C)o4)CC3)=NS2(=O)=O)cc1 -15.3%
CCOc1ccc(-c2nnc(SCC(=O)NC3CCCCC3)nc2-c2ccc(OCC)cc2)cc1 -16.1%
COc1ccc2c(c1)Cc1sc(NC(=O)c3ccccc3C)nc1-2 -12.5%
Cc1ccc(C)c(N2CCN(c3nc4ccccc4c(=O)n3-c3ccc(Cl)cc3)CC2)c1 -1.47%
COc1cccc(-c2nc(S(=O)(=O)c3ccc(C)cc3)c(N3CCCCCC3)o2)c1 -20.9%
CCOC(=O)c1ccc(N2C(=O)c3n[nH]c(-c4ccco4)c3C2c2ccc(OC)cc2OC)cc1 (stereo unspecified) -15.4%
CC(=O)c1ccc(NC(=O)Nc2ccc3snnc3c2)cc1 -29.9%
COc1ccc(/C=C/C(=O)Nc2ccc(C)cc2)cc1 -15%
CCN(CC)c1ccc(NC(=O)Cn2ncc3c(C)n(Cc4ccccc4F)c(C)c3c2=O)c(C)c1 -8.89%
Cc1ccc(NC(=O)Cc2ccc(NC(=O)N3CCCCc4ccccc43)cc2)cc1Cl -12.5%
CCCCOc1ccc(C(=O)NCC(c2ccc(Cl)cc2)N2CCOCC2)cc1 (stereo unspecified) -8.2%
Cc1cccc(C)c1-n1ncc(C(=O)NCCCN2CCCCC2)c1C1CCN(C(=O)OC(C)(C)C)CC1 -19.5%
CC(C)Oc1ccc(CNC(=O)CN2C(=O)CCn3nc(-c4cn(C)c5ccccc45)cc32)cc1 -11.3%
COc1ccc(-n2c(SCc3nc(-c4ccc(C)cc4)no3)nnc2-c2ccccc2)cc1 -11%
CCOC(=O)c1ccc(NC(=O)CN(Cc2ccc(C)cc2)S(=O)(=O)c2ccc(C)cc2)cc1 -17.7%
O=C(Nc1ccc(Oc2ccccc2)cc1)c1ccc(F)c(S(=O)(=O)N2CCN(c3cccc(Cl)c3)CC2)c1 -3.84%
COC(=O)c1nnn(-c2cccc(C)c2)c1N -12.2%
O=C(Nc1nc2c(Cl)cccc2s1)c1ccc(S(=O)(=O)N2CCc3ccccc32)cc1 -16.3%
Cc1ccccc1OCC(=O)Nc1ccc2oc(-c3ccc(F)cc3)nc2c1 1.66%
Cc1ccc(C)c(N2C(=O)N(Cc3ccccc3C)c3ccccc3S2(=O)=O)c1 1.83%
COC(=O)c1ccc(NC(=O)CSc2n[nH]c(-c3ccccc3)n2)cc1 -12.6%
CC1CN(C(=O)Nc2ccc(C(=O)NCc3ccccc3F)cc2)c2ccccc2S1 (stereo unspecified) -12.4%
Fc1ccccc1N1CCN(Cc2nnc(-c3ccc4c(c3)OCO4)o2)CC1 -10.3%

— PubChem BioAssay AID1159614 (National Center for Advancing Translational Sciences (NCATS), 2016)
